# In the supplement of paper PMC8728848:
# Some of the results follow.
# B1: SialidaseA (Arthrobacter ureafaciens) (protein)
# chain: MRSNSTSAPSLVRRAATGVLTCAVSIGLLAGLGLPAQAAPTPPNSPTLPPGSFSETNLAADRTAANFFYRIPALTYLGNDVVLAAWDGRPGSAADAPNPNSIVQRRSTDGGKTWGPVQVIAAGHVADASGPRYGYSDPSYIYDAEANKVFAFFVYSKDQGFGGSQFGNDDADRNVISSAVIESSDAGVTWSQPRLITSVTKPGTSKTNPAAGDVRSNFASSGEGIQLKYGPHKGRLIQQYAGDVRQADGSNKIQAYSVYSDDHGVTWHKGANVGDRMDENKTVELSDGRVLLNSRDNANRGYRKVAVSTDGGATYGPVSQDTELPDPANNGAIARMFPNAAQGSADAKKLIFTNANSKTGRENVSARVSCDDGETWPGVRTIRSGFSAYSTVTRLADGKFGVLYEGNYTDNMPFATFDDAWLNYVCAPLAVPAVNIAPSATQEVPVTVTNQEATTLSGATATVYTPSGWSATTVPVPDVAPGASVTVTVALTAPADASGPRSLNAAFTTADGRVSQFTFTATTPVAPQVGLTITGSAPARDVAANPYQAGDVLGYTLNVKSTANVAANSVPLTGTFDSGFLPPAAPNCRYNNLAAGASYNCTTAKHTITAADMERGYFVPEATFSITSTTTPSLTKTVQFTGAAVALRDGLISADISGARTDVGRDLATRPYAAGELVPYAFTVKNTSPFVEQVVPTAGNFSPFLPAGAGNCRYLSLPAGQSYECATPRHAVTAEEVEQGFFVPDTTWEVSAAGQSTRTYRINGGEVDLLVRDAALSATVVAEWKDADGDRFASAGDPVTFTYTVGNAGNVALTGLEAPDAGISLPFLAPGDTATATREHVLTAADVAGGSLAASAFEATARNGSKEVTATAEGQPLELKVQPAQPSKEPELTVQDLEDQTPPFDLGTAFKYRTGQKVSLAGLEYGQWYYVYLNKTGYRLGWMFPTTGDTVEFILPPEVRNGRDDVVVLDKDGRRVSFDRLQVTPKGEKI
# What was measured:
# Assay in all cases: glycan array binding signal (z-score within array); higher = stronger binding
# Details in all cases: glycan notation: IUPAC condensed, linker removed
# [1] = target: Gal(b1-4)GlcNAc(b1-3)Gal(b1-4)GlcNAc(b1-2)[Gal(b1-4)GlcNAc(b1-3)Gal(b1-4)GlcNAc(b1-6)]Man(a1-6)[Gal(b1-4)GlcNAc(b1-3)Gal(b1-4)GlcNAc(b1-2)Man(a1-3)]Man(b1-4)GlcNAc(b1-4)GlcNAc
# Summary of the method: (§1)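 Negative Z-scores can be read as non-binding. The Z-score is calculated within each array and then averaged across arrays of one protein sequence at different concentrations or buffers and across linkers. Arrays, 3228 in all, were curated from the Consortium for Functional Glycomics database and kept only where the protein sequence was available.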
# [2] = target: Gal(b1-4)GlcNAc(b1-3)Gal(b1-4)GlcNAc(b1-2)[Gal(b1-4)GlcNAc(b1-3)Gal(b1-4)GlcNAc(b1-6)]Man(a1-6)[Gal(b1-4)GlcNAc(b1-3)Gal(b1-4)GlcNAc(b1-2)Man(a1-3)]Man(b1-4)GlcNAc(b1-4)[Fuc(a1-6)]GlcNAc
# Summary of the method: as §1
# [3] = target: Gal(b1-4)GlcNAc(b1-3)Gal(b1-4)GlcNAc(b1-3)Gal(b1-4)GlcNAc
# Summary of the method: as §1
# [4] = target: Gal(b1-4)GlcNAc(b1-3)Gal(b1-4)GlcNAc(b1-3)Gal(b1-4)GlcNAc(b1-2)Man(a1-3)[Gal(b1-4)GlcNAc(b1-3)Gal(b1-4)GlcNAc(b1-3)Gal(b1-4)GlcNAc(b1-2)Man(a1-6)]Man(b1-4)GlcNAc(b1-4)GlcNAc
# Summary of the method: as §1
# [5] = target: Gal(b1-4)GlcNAc(b1-3)Gal(b1-4)GlcNAc(b1-3)Gal(b1-4)GlcNAc(b1-2)Man(a1-3)[Gal(b1-4)GlcNAc(b1-3)Gal(b1-4)GlcNAc(b1-3)Gal(b1-4)GlcNAc(b1-2)Man(a1-6)]Man(b1-4)GlcNAc(b1-4)[Fuc(a1-6)]GlcNAc
# Summary of the method: as §1
# [6] = target: Gal(b1-4)GlcNAc(b1-3)Gal(b1-4)GlcNAc(b1-3)Gal(b1-4)GlcNAc(b1-2)[Gal(b1-4)GlcNAc(b1-3)Gal(b1-4)GlcNAc(b1-3)Gal(b1-4)GlcNAc(b1-6)]Man(a1-6)[Gal(b1-4)GlcNAc(b1-3)Gal(b1-4)GlcNAc(b1-3)Gal(b1-4)GlcNAc(b1-2)Man(a1-3)]Man(b1-4)GlcNAc(b1-4)[Fuc(a1-6)]GlcNAc
# Summary of the method: as §1
# [7] = target: Gal(b1-4)GlcNAc(b1-3)Gal(b1-4)GlcNAc(b1-3)Gal(b1-4)GlcNAc(b1-3)Gal(b1-4)GlcNAc(b1-2)Man(a1-3)[Gal(b1-4)GlcNAc(b1-3)Gal(b1-4)GlcNAc(b1-3)Gal(b1-4)GlcNAc(b1-3)Gal(b1-4)GlcNAc(b1-2)Man(a1-6)]Man(b1-4)GlcNAc(b1-4)GlcNAc
# Summary of the method: as §1
# [8] = target: Gal(b1-4)GlcNAc(b1-3)Gal(b1-4)GlcNAc(b1-3)Gal(b1-4)GlcNAc(b1-3)Gal(b1-4)GlcNAc(b1-2)Man(a1-3)[Gal(b1-4)GlcNAc(b1-3)Gal(b1-4)GlcNAc(b1-3)Gal(b1-4)GlcNAc(b1-3)Gal(b1-4)GlcNAc(b1-2)Man(a1-6)]Man(b1-4)GlcNAc(b1-4)[Fuc(a1-6)]GlcNAc
# Summary of the method: as §1
# [9] = target: Gal(b1-4)GlcNAc(b1-3)Gal(b1-4)GlcNAc(b1-3)Gal(b1-4)GlcNAc(b1-3)Gal(b1-4)GlcNAc(b1-2)[Gal(b1-4)GlcNAc(b1-3)Gal(b1-4)GlcNAc(b1-3)Gal(b1-4)GlcNAc(b1-3)Gal(b1-4)GlcNAc(b1-6)]Man(a1-6)[Gal(b1-4)GlcNAc(b1-3)Gal(b1-4)GlcNAc(b1-3)Gal(b1-4)GlcNAc(b1-3)Gal(b1-4)GlcNAc(b1-2)Man(a1-3)]Man(b1-4)GlcNAc(b1-4)[Fuc(a1-6)]GlcNAc
# Summary of the method: as §1
# [10] = target: Gal(b1-4)GlcNAc(b1-3)Gal(b1-4)GlcNAc(b1-3)Gal(b1-4)GlcNAc(b1-3)Gal(b1-4)GlcNAc(b1-3)Gal(b1-4)GlcNAc(b1-2)Man(a1-3)[Gal(b1-4)GlcNAc(b1-3)Gal(b1-4)GlcNAc(b1-3)Gal(b1-4)GlcNAc(b1-3)Gal(b1-4)GlcNAc(b1-3)Gal(b1-4)GlcNAc(b1-2)Man(a1-6)]Man(b1-4)GlcNAc(b1-4)GlcNAc
# Summary of the method: as §1
# [11] = target: Gal(b1-4)GlcNAc(b1-3)Gal(b1-4)GlcNAc(b1-3)Gal(b1-4)GlcNAc(b1-3)Gal(b1-4)GlcNAc(b1-3)Gal(b1-4)GlcNAc(b1-2)Man(a1-3)[Gal(b1-4)GlcNAc(b1-3)Gal(b1-4)GlcNAc(b1-3)Gal(b1-4)GlcNAc(b1-3)Gal(b1-4)GlcNAc(b1-3)Gal(b1-4)GlcNAc(b1-2)Man(a1-6)]Man(b1-4)GlcNAc(b1-4)[Fuc(a1-6)]GlcNAc
# Summary of the method: as §1
# [12] = target: Gal(b1-4)GlcNAc(b1-3)Gal(b1-4)GlcNAc(b1-3)Gal(b1-4)GlcNAc(b1-3)Gal(b1-4)GlcNAc(b1-3)Gal(b1-4)GlcNAc(b1-2)[Gal(b1-4)GlcNAc(b1-3)Gal(b1-4)GlcNAc(b1-3)Gal(b1-4)GlcNAc(b1-3)Gal(b1-4)GlcNAc(b1-3)Gal(b1-4)GlcNAc(b1-6)]Man(a1-6)[Gal(b1-4)GlcNAc(b1-3)Gal(b1-4)GlcNAc(b1-3)Gal(b1-4)GlcNAc(b1-3)Gal(b1-4)GlcNAc(b1-3)Gal(b1-4)GlcNAc(b1-2)Man(a1-3)]Man(b1-4)GlcNAc(b1-4)[Fuc(a1-6)]GlcNAc
# Summary of the method: as §1
# [13] = target: Gal(b1-4)GlcNAc(b1-3)Gal(b1-4)GlcNAc(b1-3)Gal(b1-4)GlcNAc(b1-3)Gal(b1-4)GlcNAc(b1-3)Gal(b1-4)GlcNAc(b1-3)Gal(b1-4)GlcNAc(b1-2)Man(a1-3)[Gal(b1-4)GlcNAc(b1-3)Gal(b1-4)GlcNAc(b1-3)Gal(b1-4)GlcNAc(b1-3)Gal(b1-4)GlcNAc(b1-3)Gal(b1-4)GlcNAc(b1-3)Gal(b1-4)GlcNAc(b1-2)Man(a1-6)]Man(b1-4)GlcNAc(b1-4)GlcNAc
# Summary of the method: as §1
# [14] = target: Gal(b1-4)GlcNAc(b1-3)Gal(b1-4)GlcNAc(b1-3)GalNAc
# Summary of the method: as §1
# [15] = target: Gal(b1-4)GlcNAc(b1-3)Gal(b1-4)GlcNAc(b1-3)[Gal(b1-4)GlcNAc(b1-3)Gal(b1-4)GlcNAc(b1-6)]GalNAc
# Summary of the method: as §1
# [16] = target: Gal(b1-4)GlcNAc(b1-3)Gal(b1-4)GlcNAc(b1-6)[Gal(b1-3)]GalNAc
# Summary of the method: as §1
# [17] = target: Gal(b1-4)GlcNAc(b1-3)Gal(b1-4)[Fuc(a1-3)]GlcNAc(b1-3)Gal(b1-4)[Fuc(a1-3)]GlcNAc
# Summary of the method: as §1
# [18] = target: Gal(b1-4)GlcNAc(b1-3)GalNAc
# Summary of the method: as §1
# [19] = target: Gal(b1-4)GlcNAc(b1-3)[Fuc(a1-3)GlcNAc(b1-6)]Gal(b1-4)Glc
# Summary of the method: as §1
# [20] = target: Gal(b1-4)GlcNAc(b1-3)[Gal(b1-4)GlcNAc(b1-6)]Gal(b1-4)GlcNAc
# Summary of the method: as §1
# [21] = target: Gal(b1-4)GlcNAc(b1-3)[GlcNAc(b1-6)]Gal(b1-4)GlcNAc
# Summary of the method: as §1
# [22] = target: Gal(b1-4)GlcNAc(b1-6)Gal(b1-4)GlcNAc
# Summary of the method: as §1
# [23] = target: Gal(b1-4)GlcNAc(b1-6)GalNAc
# Summary of the method: as §1
# [24] = target: Gal(b1-4)GlcNAc(b1-6)[Gal(b1-3)]GalNAc
# Summary of the method: as §1
# [25] = target: Gal(b1-4)GlcNAc(b1-6)[Gal(b1-4)GlcNAc(b1-3)]GalNAc
# Summary of the method: as §1
# Gal(b1-4)GlcNAc6P = target: Gal(b1-4)GlcNAc6P
# Summary of the method: as §1
# Gal(b1-6)Gal = target: Gal(b1-6)Gal
# Summary of the method: as §1
# Gal3S(b1-3)GalNAc = target: Gal3S(b1-3)GalNAc
# Summary of the method: as §1
# Gal3S(b1-3)GlcNAc = target: Gal3S(b1-3)GlcNAc
# Summary of the method: as §1
# [26] = target: Gal3S(b1-3)[Fuc(a1-4)]GlcNAc
# Summary of the method: as §1
binder,measurement,setting,value
B1,glycan array binding signal (z-score),[1],-0.36
same,glycan array binding signal (z-score),[2],0.8
same,glycan array binding signal (z-score),[3],-0.673
same,glycan array binding signal (z-score),[4],0.122
same,glycan array binding signal (z-score),[5],0.225
same,glycan array binding signal (z-score),[6],0.354
same,glycan array binding signal (z-score),[7],-0.27
same,glycan array binding signal (z-score),[8],0.406
same,glycan array binding signal (z-score),[9],0.286
same,glycan array binding signal (z-score),[10],0.053
same,glycan array binding signal (z-score),[11],0.059
same,glycan array binding signal (z-score),[12],0.362
same,glycan array binding signal (z-score),[13],0.155
same,glycan array binding signal (z-score),[14],-0.024
same,glycan array binding signal (z-score),[15],0.142
same,glycan array binding signal (z-score),[16],-0.451
same,glycan array binding signal (z-score),[17],-0.655
same,glycan array binding signal (z-score),[18],-0.697
same,glycan array binding signal (z-score),[19],-0.718
same,glycan array binding signal (z-score),[20],-0.428
same,glycan array binding signal (z-score),[21],-0.447
same,glycan array binding signal (z-score),[22],-0.281
same,glycan array binding signal (z-score),[23],-0.545
same,glycan array binding signal (z-score),[24],-0.5
same,glycan array binding signal (z-score),[25],-0.374
same,glycan array binding signal (z-score),Gal(b1-4)GlcNAc6P,-0.685
same,glycan array binding signal (z-score),Gal(b1-6)Gal,-0.753
same,glycan array binding signal (z-score),Gal3S(b1-3)GalNAc,-0.353
same,glycan array binding signal (z-score),Gal3S(b1-3)GlcNAc,-0.552
same,glycan array binding signal (z-score),[26],-0.337
